Assay results published in patent publication US20230021840A1 (BEIJING SUNGEN BIOMEDICAL TECHNOLOGY, published 2023).

Legend:
[1] = biological target: T1, recombinant human soluble GP73 (human, UniProt Q8NBJ4 56-401, limits assumed); assay: SPR, Reichert 4SPR
T1 construct: domain: soluble GP73; Expressed and purified from mammalian cells by the applicant; also called rhsGP73; sGP73
T1 sequence (looked up): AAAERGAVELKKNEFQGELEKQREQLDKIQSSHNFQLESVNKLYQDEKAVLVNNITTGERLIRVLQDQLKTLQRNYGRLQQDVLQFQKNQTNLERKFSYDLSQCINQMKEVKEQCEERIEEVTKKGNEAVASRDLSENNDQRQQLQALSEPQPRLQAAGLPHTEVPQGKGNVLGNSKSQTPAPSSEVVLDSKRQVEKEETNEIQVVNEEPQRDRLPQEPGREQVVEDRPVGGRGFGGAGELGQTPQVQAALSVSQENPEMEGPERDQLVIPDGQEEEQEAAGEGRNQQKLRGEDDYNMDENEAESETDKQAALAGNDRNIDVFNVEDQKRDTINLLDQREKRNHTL

[2] = biological target: T1, recombinant human soluble GP73; assay: OpenSPR, GP73 coupled to amine sensor chip, glucagon in mobile phase
[3] = biological target: T1, recombinant human soluble GP73; assay: microscale thermophoresis (MST), His-tagged GP73 labelled with RED-tris-NTA, GCG titrated

- Kd [1]: 2.83 µM
- Kd [2]: 2.8 µM
- Kd [3]: 2.45 µM
B1: glucagon (peptide)
peptide: not shown
notes: mature; The 29-residue glucagon peptide is only a part of that entry; also called GCG
